# In PubChem BioAssay (NCATS):
# Values joined by “and” are separate entries in the source; they are usually repeats but may differ in a detail not shown here. Equal entries are not always repeated. This list was built around the results that the source calls inconclusive (neither active nor inactive); the mix of calls is not that of the screen. For part of these data: A potency beside an inconclusive call is a rough fit, not a confirmed value. Where a structure was tested more than once in an assay, its records may differ in their call. Active and inactive are the calls of the source. The call rests on the fitted dose curve; in most records, active means well fitted curve in the direction sought with a large enough effect; inconclusive means small, poorly fitted or top-dose-only effect, or another doubt; inactive means no such curve, though single readings can be large; an effect the other way counts as inactive or inconclusive.
# What was measured:
# [1] = Primary qHTS for inhibitors of nuclear receptor binding SET domain protein 2 (NSD2) in an isogenic RCH-ACV NSD2 p.E1099K mutant (9B) (AID 1645876); further: nearly all actives have a fitted effect of over 70% in size; further: potency means the concentration at half of the fitted maximal effect
# [2] = Primary qHTS for inhibitors of nuclear receptor binding SET domain protein 2 (NSD2) in an RCH-ACV wild type WT cells (2C) (AID 1645877); conditions: activity change, negative = cell killing: at 44.9 µM (top of the series); further: nearly all actives have a fitted effect of over 70% in size; further: potency means the concentration at half of the fitted maximal effect
# CRL-7250 = normal cell line; experiment: Cytotoxic Profiling of Annotated Libraries Using Quantitative High-Throughput Screening (AID 1296008); conditions: Five cell lines viability, CellTiter-Glo ATP luminescence, 48-72 h; max response: stronger effect = lower value; further: nearly all actives have a fitted effect of over 60% in size; further: potency means the concentration at half of the fitted maximal effect; on max response: on the % scale 0 is the no-effect control and ±100 the full control effect
# How it was run: (§1)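 Cytotoxicity was measured as CellTiter-Glo ATP luminescence, read after 10 min at room temperature. Compound treatment of the cells lasted 48 or 72 hr at 37 degrees Celsius in a qHTS format.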
# HEK293 = experiment: as above; conditions: Five cell lines viability, CellTiter-Glo ATP luminescence, 48-72 h; max response: stronger effect = lower value
# How it was run: as §1
# CAOV3 = experiment: Primary qHTS to identify gynecologic anti-cancer compounds using libraries of approved drugs and bioactive compounds (AID 1345084); conditions: Gynecologic cancer cell panel viability, ATPlite luminescence, 48 h; series mostly up to 57.5 µM; further: nearly all actives have a fitted effect of over 55% in size; further: potency means the concentration at half of the fitted maximal effect; on activity change, negative = cytotoxicity: on the % scale 0 is the no-effect control and ±100 the full control effect
# How it was run: (§2)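 Luminescence from the ATPlite ATP-monitoring reagent indicates viable cell number; lower signal means cytotoxicity. Cells received compound 16 h after seeding and were exposed for 48 h across five concentrations.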
# PA-1 = experiment: as above; conditions: Gynecologic cancer cell panel viability, ATPlite luminescence, 48 h; series mostly up to 57.5 µM
# How it was run: as §2
# [3] = P-glycoprotein substrates identified in KB-8-5-11 adenocarcinoma cell line, qHTS therapeutic library screen (AID 1346987); further: nearly all actives have a fitted effect of over 65% in size; further: potency means the concentration at half of the fitted maximal effect
# How it was run: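 Steps: plate 500 KB-8-5-11 cells/well in DMEM + 10% FCS (colchicine removed); pin compounds in dose-response; incubate 72 h, 37 degree C, 5% CO2; add CellTiter-Glo, 5 min; read luminescence.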
# [4] = Primary qHTS for small molecule stabilizers of the endoplasmic reticulum resident proteome: Secreted ER Calcium Modulated Protein (SERCaMP) assay (AID 1508630); conditions: SH-SY5Y GLuc-SERCaMP (Gaussia luciferase released on ER calcium loss) secretion, thapsigargin, luminescence; activity change, negative = inhibition: at 38.4 µM (top of the series); further: potency means the concentration at half of the fitted maximal effect
# How it was run: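 GLuc-SERCaMP-expressing SH-SY5Y cells, pretreated 16 h with compound, are challenged with thapsigargin to empty ER calcium stores; after 4 h, coelenterazine is added directly to the medium and luminescence is imaged.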
# OV90 = experiment: Primary qHTS to identify gynecologic anti-cancer compounds using libraries of approved drugs and bioactive compounds (AID 1345084); conditions: Gynecologic cancer cell panel viability, ATPlite luminescence, 48 h; series mostly up to 57.5 µM; further: nearly all actives have a fitted effect of over 55% in size; further: potency means the concentration at half of the fitted maximal effect; on activity change, negative = cytotoxicity: on the % scale 0 is the no-effect control and ±100 the full control effect
# How it was run: as §2
# WaGa = experiment: qHTS assay to identify novel small-molecules to repurpose for Merkel cell carcinoma treatment (AID 1296009); conditions: MCC and control cell lines, CellTiter-Glo viability, 72 h; series mostly up to 46 µM; further: nearly all actives have a fitted effect of over 60% in size; further: potency means the concentration at half of the fitted maximal effect
# How it was run: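 72 hr, 37 degree celsius; NPC 8-pt / MIPE 11-pt dose response; compound pinned in DMSO; CellTiter-Glo, 10 min RT, luminescence; normalized to no-cell and DMSO controls.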
# C33A = experiment: Primary qHTS to identify gynecologic anti-cancer compounds using libraries of approved drugs and bioactive compounds (AID 1345084); conditions: Gynecologic cancer cell panel viability, ATPlite luminescence, 48 h; series mostly up to 57.5 µM; further: nearly all actives have a fitted effect of over 55% in size; further: potency means the concentration at half of the fitted maximal effect; on activity change, negative = cytotoxicity: on the % scale 0 is the no-effect control and ±100 the full control effect
# How it was run: as §2
# SKOV3 = experiment: as above; conditions: Gynecologic cancer cell panel viability, ATPlite luminescence, 48 h; series mostly up to 57.5 µM
# How it was run: as §2
# Tov-21-G = experiment: as above; conditions: Gynecologic cancer cell panel viability, ATPlite luminescence, 48 h; activity change, negative = cytotoxicity: at 57.5 µM (top of the series)
# How it was run: as §2
# [5] = Primary fluorescence-based thiol-reactive (MSTI) qHTS assay for identification of artifact compounds. (AID 1845221);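 further: thiol-reactive compounds lower the probe fluorescence signal; nearly all actives have a fitted effect of over 65% in size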
# How it was run: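 Compounds were incubated 1 h at room temperature in the dark with the MSTI probe (4 uM) in PBS pH 7.4, 2% DMSO. Signals were normalized between Acetyl-MSTI and MSTI.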
# Hek293T = experiment: Primary qHTS to identify gynecologic anti-cancer compounds using libraries of approved drugs and bioactive compounds (AID 1345084); conditions: Gynecologic cancer cell panel viability, ATPlite luminescence, 48 h, control line for the selectivity index; series mostly up to 57.5 µM; further: nearly all actives have a fitted effect of over 55% in size; further: potency means the concentration at half of the fitted maximal effect
# How it was run: as §2
# HeLa = experiment: as above; conditions: Gynecologic cancer cell panel viability, ATPlite luminescence, 48 h; series mostly up to 57.5 µM
# How it was run: as §2
# [6] = system: Zika virus NS2B-NS3 protease (unlinked complex); experiment: Primary screen GU Rhodamine qHTS for Zika virus inhibitors: Unlinked NS2B-NS3 protease assay (AID 1347159); further: potency means the concentration at half of the fitted maximal effect; nearly all actives have a fitted effect of over 60% in size
# How it was run: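 Compounds, tested up to 114 microM, were incubated for 15 minutes with 25 nM unlinked NS2B-NS3 protease at pH 8.0. Cleavage of 1.5 microM Rhodamine110 substrate was then followed by fluorescence for 15 minutes.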
# CASKI = experiment: Primary qHTS to identify gynecologic anti-cancer compounds using libraries of approved drugs and bioactive compounds (AID 1345084); conditions: Gynecologic cancer cell panel viability, ATPlite luminescence, 48 h; activity change, negative = cytotoxicity: at 57.5 µM (top of the series); further: nearly all actives have a fitted effect of over 55% in size; further: potency means the concentration at half of the fitted maximal effect
# How it was run: as §2
# JEG-3 = experiment: as above; conditions: Gynecologic cancer cell panel viability, ATPlite luminescence, 48 h; series mostly up to 57.5 µM
# How it was run: as §2
# Tags describe the fitted curve by direction and shape.
compound,measurement,setting,value
Cc1cc(NS(=O)(=O)c2ccc(N)cc2)nc(C)n1,Potency,[1],inactive
same,Potency,[2],inactive
same,max response,CRL-7250,inactive: -3.14%
same,max response,HEK293,inactive: -0.689%
same,Potency,CAOV3,inactive
same,Potency,PA-1,inactive
NC1=NCC2c3ccccc3Cc3ccccc3N12 (stereo unspecified),Potency,[3],inactive
same,Potency,[4],"inconclusive: 28.2 µM [inhibitor, single point]"
same,Potency,[1],"inconclusive: 29.9 µM [inhibitor, single point]"
same,Potency,[2],"inconclusive: 26.6 µM [inhibitor, single point]"
same,Potency,CRL-7250,"inconclusive: 5.96 µM [inhibitor, full curve]"
same,Potency,HEK293,"inconclusive: 33.5 µM [inhibitor, single point]"
same,Potency,OV90,"inconclusive: 10 µM [cytotoxic, partial curve, poor fit]"
O=C1Nc2ccccc2C1(c1ccc(O)cc1)c1ccc(O)cc1,Potency,[4],"inconclusive: 11.2 µM [inhibitor, single point]"
same,Potency,CRL-7250,active: 23.7 µM
same,Potency,HEK293,"inconclusive: 29.9 µM [inhibitor, partial curve, poor fit]"
same,Potency,WaGa,"inconclusive: 33.5 µM [inhibitor, single point]"
same,Potency,C33A,"inconclusive: 22.4 µM [cytotoxic, partial curve, poor fit]"
same,Potency,CAOV3,"inconclusive: 39.8 µM [cytotoxic, partial curve, poor fit]"
same,Potency,OV90,"inconclusive: 2.24 µM [cytotoxic, partial curve, poor fit]"
same,Potency,SKOV3,"inconclusive: 8.91 µM [cytotoxic, partial curve, poor fit]"
same,Potency,Tov-21-G,"inconclusive: 3.55 µM [cytotoxic, full curve]"
COc1ccc2[nH]c(S(=O)Cc3ncc(C)c(OC)c3C)nc2n1 (stereo unspecified),Potency,[3],"inconclusive: 20.6 µM [inhibitor, single point]"
same,Potency,[5],inactive
same,outcome,CRL-7250,inactive
same,Potency,HEK293,"inconclusive: 29.1 µM [inhibitor, single point]"
same,Potency,WaGa,"inconclusive: 15 µM [inhibitor, partial curve, poor fit]"
same,Potency,C33A,inactive
same,Potency,CAOV3,"inconclusive: 11.2 µM [rising, partial curve, poor fit]"
same,Potency,Hek293T,inactive
same,Potency,OV90,inactive
CC(C)[C@@H]1CC[C@@H](C)CC1=O,Potency,CRL-7250,"inconclusive: 18.8 µM [inhibitor, single point]"
same,max response,HEK293,inactive: -11.3%
same,Potency,WaGa,inactive
CCN(CC)CCNC(C(=O)OCCC(C)C)c1ccccc1 (stereo unspecified),Potency,[3],"inconclusive: 16.4 µM [inhibitor, partial curve]"
same,Potency,[1],inactive
same,max response,CRL-7250,inactive: 1.18%
same,outcome,HEK293,inactive
same,Potency,HeLa,inactive
C[C@@H]1COCCN1c1cc(=O)n2c(n1)N(Cc1cncc(Cl)c1)[C@H](C(F)(F)F)CC2,Potency,[3],"inconclusive: 18.4 µM [inhibitor, single point]"
same,Potency,[1],"active: 6.51 µM and inconclusive: 33.2 µM [inhibitor, partial curve, poor fit]"
same,Potency,[2],active: 6.51 µM and inactive
same,Potency,CRL-7250,"inconclusive: 23.4 µM [inhibitor, partial curve]"
same,Potency,HEK293,active: 4.17 µM
CC(=O)N[C@H]1[C@H](O[C@H]2CC[C@@]3(C)C(CC[C@]4(C)C3CC=C3C5CC(C)(C)CC[C@]5(C(=O)O)[C@H](O)C[C@]34C)C2(C)C)O[C@H](CO[C@@H]2OC[C@H](O)[C@H](O)[C@H]2O[C@@H]2OC[C@@H](O)[C@H](O)[C@H]2O)[C@@H](O)[C@@H]1O (stereo partly specified),Potency,CRL-7250,"inconclusive: 6.93 µM [inhibitor, single point]"
same,max response,HEK293,inactive: -1.2%
same,Potency,CAOV3,"inconclusive: 0.158 µM [cytotoxic, full curve, poor fit]"
C/C=C(\C)C(=O)O[C@@H]1[C@@H](C)[C@]2(O)[C@@H]3C=C(C)C(=O)[C@H]3CC(CO)=C[C@H]2C2C(C)(C)[C@@]21OC(=O)C(C)CC (stereo partly specified),Potency,[3],"inconclusive: 1 µM [inhibitor, full curve]"
same,Potency,[6],"inconclusive: 17.8 µM [inhibitor, partial curve]"
same,Potency,[1],"inconclusive: 0.2 µM [inhibitor, full curve, poor fit]"
same,Potency,[2],"inconclusive: 0.563 µM [inhibitor, full curve, poor fit]"
same,Potency,CRL-7250,"inconclusive: 0.356 µM [inhibitor, full curve, poor fit]"
same,Potency,HEK293,"inconclusive: 4.47 µM [inhibitor, partial curve]"
same,Potency,C33A,"inconclusive: 8.91 µM [rising, partial curve]"
same,Potency,CASKI,inactive
same,Potency,HeLa,inactive
same,Potency,JEG-3,"inconclusive: 11.2 µM [cytotoxic, single point]"
same,Potency,OV90,"inconclusive: 4.47 µM [cytotoxic, partial curve]"
CN1CCN(C2=Nc3cc(F)ccc3Cc3ccccc32)CC1,Potency,[3],"inconclusive: 18.4 µM [inhibitor, single point]"
same,Potency,[4],"inconclusive: 28.2 µM [inhibitor, single point] and inconclusive: 11.2 µM [inhibitor, partial curve, poor fit]"
same,Potency,[1],"inconclusive: 26.6 µM [inhibitor, single point]"
same,Potency,[2],"inconclusive: 21.1 µM [inhibitor, single point]"
same,max response,CRL-7250,inactive: -25%
same,Potency,HEK293,"inconclusive: 21.1 µM [inhibitor, partial curve, poor fit]"
same,Potency,WaGa,"inconclusive: 33.5 µM [inhibitor, single point]"
same,Potency,OV90,"inconclusive: 39.8 µM [cytotoxic, single point]"
